{"source": "PubChem BioAssay AID488969", "about": "(Vanderbilt High Throughput Screening Facility, 2010)", "note": "Over roughly 110,000 compounds, “z-score” has its median near -0.1; the highest 2% begin near 2. This is one part of the list. Activity calls are given as the source filed them.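 How the source made its calls: active means z-score in the third read window above 3 or below -3; inactive means the rest.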", "data": [{"target": "Metabotropic glutamate receptor 8 (Rattus norvegicus) (UniProt P70579)", "sequence (P70579 whole entry, looked up)": "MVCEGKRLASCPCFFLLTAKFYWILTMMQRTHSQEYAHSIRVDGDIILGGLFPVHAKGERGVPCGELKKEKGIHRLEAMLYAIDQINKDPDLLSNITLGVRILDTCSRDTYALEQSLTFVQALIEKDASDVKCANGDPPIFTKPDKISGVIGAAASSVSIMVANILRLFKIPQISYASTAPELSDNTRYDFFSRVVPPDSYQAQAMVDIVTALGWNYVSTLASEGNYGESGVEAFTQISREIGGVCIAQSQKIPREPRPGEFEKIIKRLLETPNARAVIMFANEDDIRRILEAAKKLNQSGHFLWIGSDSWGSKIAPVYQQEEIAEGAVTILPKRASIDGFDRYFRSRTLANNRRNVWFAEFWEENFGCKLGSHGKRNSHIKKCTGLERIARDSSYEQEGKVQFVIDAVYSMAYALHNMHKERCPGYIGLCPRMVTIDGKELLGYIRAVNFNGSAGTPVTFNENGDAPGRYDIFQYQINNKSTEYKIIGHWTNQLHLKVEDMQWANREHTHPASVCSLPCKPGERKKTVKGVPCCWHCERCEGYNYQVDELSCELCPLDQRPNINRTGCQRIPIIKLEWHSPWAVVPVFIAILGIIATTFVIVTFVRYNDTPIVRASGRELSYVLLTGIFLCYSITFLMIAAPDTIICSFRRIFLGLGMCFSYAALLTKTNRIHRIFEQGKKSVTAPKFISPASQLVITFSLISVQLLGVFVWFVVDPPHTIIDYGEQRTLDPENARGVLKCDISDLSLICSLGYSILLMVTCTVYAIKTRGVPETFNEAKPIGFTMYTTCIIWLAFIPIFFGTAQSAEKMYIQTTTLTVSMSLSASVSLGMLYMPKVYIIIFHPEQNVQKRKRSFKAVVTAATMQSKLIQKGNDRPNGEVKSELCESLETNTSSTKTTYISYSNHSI", "experiment": "rat mGluR8 modulators via GIRK flux, primary screen, cell-based, thallium flux, HTS (AID 488969)", "settings": "HEK293 rat mGluR8, GIRK (G protein-gated inwardly rectifying potassium channel) thallium flux, FluoZin2; at 10 µM; stronger effect = higher value; submaximal glutamate (EC20) added with thallium", "values": [{"smiles": "CCCC1CC(CSC(=N)N)OC1=O", "note": "(centres undefined)", "z-score": -0.478}, {"smiles": "N#CCSc1nc(-c2ccccc2)cs1", "z-score": -0.0202}, {"smiles": "Cc1sc2nc3c(SC(C)C(=O)O)cc(C(=O)c4ccccc4O)cn3c(=O)c2c1C", "note": "(centres undefined)", "z-score": -0.913}, {"smiles": "COc1ccc(OC)c(-c2nc(C)sc2CC(=O)O)c1", "z-score": -0.649}, {"smiles": "O=C(Oc1ccc2cccc(OC(=O)N3CCOCC3)c2c1)N1CCOCC1", "z-score": 0.24}, {"smiles": "O=C(COC(=O)c1ccccc1NCc1ccco1)Nc1ccc2c(c1)OCO2", "z-score": 0.427}, {"smiles": "CCOC(=O)C1C(=O)OC(C)(C)C1C(C)C(=O)c1ccc(OC)cc1", "note": "(centres undefined)", "z-score": -0.13}, {"smiles": "CCN1CCCC1CN(Cc1cc2c(C)cc(C)cc2[nH]c1=O)C(=O)NC1CCCCC1", "note": "(centres undefined)", "z-score": -0.0328}, {"smiles": "O=S(=O)(c1ccc(S(=O)(=O)N(Cc2ccco2)Cc2ccccc2Cl)cc1)N1CCCC1", "z-score": 0.644}, {"smiles": "O=C(N/N=C/c1ccccc1)NC1CCCCC1", "z-score": -0.571}, {"smiles": "CC(C)(C)n1nnnc1C(c1cccs1)N(Cc1cccnc1)Cc1ccco1", "note": "(centres undefined)", "z-score": -0.322}, {"smiles": "CCOC(=O)C(CCCOc1ccc(C(C)CC)cc1)C(=O)OCC", "note": "(centres undefined)", "z-score": -0.584}, {"smiles": "COCCn1c(SCC(=O)N2CCCCC2)nc2ccccc2c1=O", "z-score": -0.143}, {"smiles": "COc1ccccc1NC(=O)CN1CCN(Cc2ccccc2)CC1", "z-score": -0.202}, {"smiles": "Fc1ccccc1CSc1nnc(-c2ccccc2)o1", "z-score": -0.226}, {"smiles": "COc1ccccc1C(=O)N1c2ccccc2Sc2ccccc21", "z-score": -2.64}, {"smiles": "CCc1ccccc1Nc1nc(N)nc(CSCC(=O)c2cc(C)n(C)c2C)n1", "z-score": -0.408}, {"smiles": "CCCn1c(-c2cccc([N+](=O)[O-])c2)nc2c1c(=O)[nH]c(=O)n2Cc1ccccc1", "z-score": -0.444}, {"smiles": "O=C1NC(=S)/C(=C\\c2ccc(-c3ccccc3Cl)o2)S1", "z-score": "active: 3.83"}, {"smiles": "CC(C)COc1ccc(C(=O)NC(=S)Nc2ccc(CN3CCOCC3)cc2)cc1", "z-score": -0.0271}, {"smiles": "Cc1cc(C)c2cc(CN(Cc3nnnn3Cc3ccc(F)cc3)C3CCCC3)c(=O)[nH]c2c1", "z-score": 0.326}, {"smiles": "Cc1ccc(OCCSc2ncnc3nc[nH]c23)cc1", "z-score": 0.0215}, {"smiles": "O=C1CN(C(=O)CSc2nnc(-c3ccccc3)n2Cc2ccc3c(c2)OCO3)c2ccccc2N1", "z-score": -1.54}, {"smiles": "Cc1sc(NC(=O)C2CCCCC2C(=O)O)c(C(N)=O)c1C", "note": "(centres undefined)", "z-score": 0.235}, {"smiles": "O=C(Nc1ccccc1N1CCOCC1)c1ccc([N+](=O)[O-])cc1", "z-score": -0.171}, {"smiles": "Cc1ccc(OCC(=O)Nn2c(C)nc3ccccc3c2=O)c(C(C)C)c1", "z-score": -0.06}, {"smiles": "COc1cccc(-c2nnc(NC(=O)C(C)C)o2)c1", "z-score": 0.295}, {"smiles": "CCc1cccc(CC)c1NC(=O)NC1CCCCC1", "z-score": -0.115}, {"smiles": "Cc1ccc(C(=O)C(C)OC(=O)c2cc3cc([N+](=O)[O-])ccc3oc2=O)cc1", "note": "(centres undefined)", "z-score": -0.476}, {"smiles": "CCN(CC)S(=O)(=O)c1ccc(N2CCN(S(=O)(=O)c3ccc4c(c3)OCCO4)CC2)nc1", "z-score": 0.0737}, {"smiles": "Cc1ccc(C(=O)C2COC(=O)C2)cc1", "note": "(centres undefined)", "z-score": 0.417}, {"smiles": "CC1(C)Cc2c(C#N)c(N)sc(=S)c2CS1", "z-score": -0.529}, {"smiles": "Cc1ccccc1-c1ccc(=O)n(CC(=O)Nc2ccc(C(=O)N3CCCC3)cc2)n1", "z-score": 0.0513}, {"smiles": "Cc1cc(NC(=O)CS(=O)(=O)c2cn(Cc3cccc(F)c3)c3ccccc23)no1", "z-score": -1.12}, {"smiles": "COc1ccc(-c2cc3ccc(OCc4nn[nH]n4)cc3oc2=O)cc1", "z-score": 0.104}, {"smiles": "O=C(NCCN1CCOCC1)c1cc(=O)[nH]c2ccc(Br)cc12", "z-score": -0.169}, {"smiles": "COc1ccc(OC)c(C(c2nnnn2Cc2ccccc2)N2CCN(C)CC2)c1", "note": "(centres undefined)", "z-score": -0.291}, {"smiles": "COc1ccc(C(C)(C)C)cc1NC(=O)CNc1cccc2ccccc12", "z-score": 0.195}, {"smiles": "c1ccc(-c2nn3c(Cn4nnc5ccccc54)nnc3s2)cc1", "z-score": -0.467}, {"smiles": "COC(=O)c1scc(C)c1NC(=O)Nc1ccccc1", "z-score": 0.035}, {"smiles": "CC(=O)Nc1sc(NC(=O)c2ccc(Cl)cc2)nc1-c1cccs1", "z-score": -0.664}, {"smiles": "CCOC(=O)CSc1ccc2nnc(-c3cccs3)n2n1", "z-score": 0.353}, {"smiles": "COc1ccc(CNC(=O)COc2ccc(S(=O)(=O)NC(C)C)cc2)cc1", "z-score": 0.46}, {"smiles": "Cc1nc2ncccn2c1-c1csc(NCc2ccco2)n1", "z-score": -0.504}, {"smiles": "O=C(COc1ccccc1F)Nc1ccc(S(=O)(=O)NCc2ccco2)cc1", "z-score": 0.0184}, {"smiles": "CCN(CC)S(=O)(=O)c1ccc(OC(C)C)c(NC(=O)c2c3c(nc4ccccc24)CCN(Cc2ccccc2)C3)c1", "z-score": 0.12}, {"smiles": "O=C(N/N=C/c1ccco1)/C(=C/c1cccc([N+](=O)[O-])c1)NC(=O)c1ccccc1", "z-score": -0.408}, {"smiles": "Cc1ccc(NC(=O)CSc2nnc(-c3cnccn3)n2Cc2ccco2)cc1C", "z-score": -0.0937}, {"smiles": "Cc1cc(NC(=O)CSc2nc3ccccc3n2CC(=O)N2CCCCC2)no1", "z-score": 0.0584}, {"smiles": "O=C1CC(c2cc([N+](=O)[O-])ccc2Cl)c2c(ccc3ccccc23)N1", "note": "(centres undefined)", "z-score": 0.243}, {"smiles": "Cc1[nH]c2ccccc2c1C(=O)CN1C(=O)NC(C)(c2ccc(Cl)cc2Cl)C1=O", "note": "(centres undefined)", "z-score": -0.0102}, {"smiles": "O=C(COc1ccc(Br)cc1)Nc1ccc(-c2nnc(-c3ccco3)o2)cc1", "z-score": -0.101}, {"smiles": "CC(C)(C)C(=O)NCC12C=CC(O1)C1C(=O)N(c3ccccc3)C(=O)C12", "note": "(centres undefined)", "z-score": 0.315}, {"smiles": "CCOC(=O)CCn1c(=O)c2c(nc(Br)n2Cc2ccccc2)n(C)c1=O", "z-score": 0.203}, {"smiles": "O=C(CSc1nnc(-c2ccco2)n1Cc1ccco1)Nc1ccccc1", "z-score": -0.235}, {"smiles": "C=CCc1c(OC(C)=O)c2ccccc2n(C)c1=O", "z-score": -0.353}, {"smiles": "CCOC(=O)Nc1sc2nc(C)cc(C)c2c1-n1cccc1", "z-score": 0.355}, {"smiles": "C=CCNC(=O)CN(c1ccccc1OCC)S(=O)(=O)c1ccc(C)cc1", "z-score": 0.0192}, {"smiles": "O=C(CNC(=O)c1cccs1)c1ccc(F)cc1", "z-score": 0.125}, {"smiles": "Cc1ccccc1CSc1nccn1-c1ccccc1", "z-score": -1.59}, {"smiles": "COc1ccc(NC(=O)Cn2cc(S(=O)(=O)Cc3ccccc3)c3ccccc32)c(OC)c1", "z-score": -0.139}, {"smiles": "CCCOc1ccc(CSc2ncn[nH]2)cc1", "z-score": 0.502}, {"smiles": "Cc1ccnc(NC(=O)CSc2cc(=O)n(C)c3ccccc23)c1", "z-score": 0.327}, {"smiles": "Cc1c(CCOC(=O)C2C3CC4CC(C3)CC2C4)sc[n+]1CC(=O)c1ccc(Br)cc1", "note": "(centres undefined)", "z-score": 2.48}, {"smiles": "CCOc1ccc(NC(=O)CSc2nc(C)c3c(c2C#N)CCCC3)cc1", "z-score": 0.0475}, {"smiles": "Cc1ccc(CNc2oc(C)nc2C#N)cc1", "z-score": -0.0991}, {"smiles": "CCOC(=O)Cc1csc(NC(=O)CSc2nnc(C(C)C)n2CC)n1", "z-score": 0.0208}, {"smiles": "CN1CCC(=NNc2ccc(S(=O)(=O)N3CCOCC3)cc2[N+](=O)[O-])CC1", "z-score": -0.269}, {"smiles": "Cc1ccsc1C1C2=C(CCCC2=O)Nc2ncnn21", "note": "(centres undefined)", "z-score": -0.47}]}]}
